Changes are numbered by the printed parent chain.
B1: AbG-CZ (conjugate)
heavy: EVQLQESGPGLVKPSQTLSLTCTVSGYSISNDFAWNWIRQLPGKGLEWMGYISYKGNTRYQPSLKSRITISRDTSKNQFFLKLNSVTAADTATYYCVTASRGLPYWGQGTLVTVSS[here human IgG1 constant region without letters]
light: DIQMTQSPSSMSVSVGDRVTITCHSSQDITYNIGWLQQKPGKSFKGLIYHGANLDDGVPSRFSGSGSGTDYTLTISSLQPEDFATYYCVQYDEFPWTFGGGTKLEIKRTVAAPSVFIFPPSDEQLKSGTASVVCLLNNFYPREAKVQWKVDNALQSGNSQESVTEQDSKDSTYSLSSTLTLSKADYEKHKVYACEVTHQGLSSPVTKSFNRGEC
B2: AbK-LB (conjugate)
heavy: B1 heavy with N31R, L41P, K55N, L103F, Y105W
light: B1 light with I33V, A52S, D56H, E93D
B3: AbG-LB (conjugate)
heavy: B1 heavy
light: B1 light
B4: AbG-AAD (conjugate)
heavy: B1 heavy
light: B1 light
modifications: non-natural residues
B5: AbG-YY (conjugate)
heavy: B1 heavy
light: B1 light
B6: AbG-WD (conjugate)
heavy: B1 heavy
light: B1 light
B7: AbK-CZ (conjugate)
heavy: B1 heavy with N31R, L41P, K55N, L103F, Y105W
light: B1 light with I33V, A52S, D56H, E93D
B8: AbK-YY (conjugate)
heavy: B1 heavy with N31R, L41P, K55N, L103F, Y105W
light: B1 light with I33V, A52S, D56H, E93D
B9: AbK-TV (conjugate)
heavy: B1 heavy with N31R, L41P, K55N, L103F, Y105W
light: B1 light with I33V, A52S, D56H, E93D
B10: AbG-TX (conjugate)
heavy: B1 heavy
light: B1 light
B11: AbK-TX (conjugate)
heavy: B1 heavy with N31R, L41P, K55N, L103F, Y105W
light: B1 light with I33V, A52S, D56H, E93D
B12: AbK-AAA (conjugate)
heavy: B1 heavy with N31R, L41P, K55N, L103F, Y105W
light: B1 light with I33V, A52S, D56H, E93D
B13: AbG-AAA (conjugate)
heavy: B1 heavy
light: B1 light
B14: AbK-WD (conjugate)
heavy: B1 heavy with N31R, L41P, K55N, L103F, Y105W
light: B1 light with I33V, A52S, D56H, E93D
B15: AbK-AAD (conjugate)
heavy: B1 heavy with N31R, L41P, K55N, L103F, Y105W
light: B1 light with I33V, A52S, D56H, E93D
modifications: non-natural residues
B16: AbG-TV (conjugate)
heavy: B1 heavy
light: B1 light

Test system: Mcl-1−/− MEFs expressing huEGFR
Assay: Cell viability (CellTiter-Glo) of mcl-1-/- MEFs expressing huEGFR
Assay type: cell-based, mouse
Settings: 96 hours treatment, read-out: huEGFR+ mcl-1−/− MEF EC50
Source text: (§1) The cytotoxicity of the anti-EGFR antibodies AbB, AbG, AbK, and AbL as Bcl-xL ADCs against the EGFR positive non-small cell lung cancer cells (NCI-H1650) was compared to non-targeting MSL109 isotype matched exemplary ADCs. To further evaluate the in vitro efficacy of these exemplary EGFR-targeted Bcl-xL-ADCs, human EGFR was over-expressed in mcl-1^−/− mouse embryonic fibroblasts (MEFs). Mcl-1 refers to the gene myeloid cell leukemia 1. Mcl-1^−/− MEFs are dependent upon Bcl-xL for survival (Lessene et al., 2013, Nature Chemical Biology 9:390-397).
(§2) Retroviral supernatants were produced through transfection of the GP2-293 packaging cell line (Clontech) with the retroviral construct pLVC-IRES-Hygro (Clontech) containing huEGFR sequence or the empty vector utilizing FuGENE 6 transfection reagent (Roche Molecular Biochemicals, Mannheim, Germany). After 48 hours of culture, virus-containing supernatant was harvested and applied to mcl-1^−/− MEFs in 75 cm^2 culture flasks (0.5×10^6 per flask) for a further 48 hours in the presence of polybrene (8 μg/ml; Sigma). Mcl-1^−/− MEFs were washed and selected after 3 days with 250 µg/ml hygromycin B (Invitrogen) in the full complement of media. The expression of huEGFR was confirmed by flow cytometry and compared to the parental cell line or those transfected with the empty vector.
(§3) Mcl-1^−/− MEFs expressing huEGFR or the pLVX empty vector (Vct Ctrl) were treated with AB033-targeted Bcl-xL-ADCs, AB033 alone or MSL109-targeted Bcl-xL-ADCs for 96 hours in DMEM containing 10% FBS. For the assay, the cells were plated at 250 cells per well in 384-well tissue culture plates (Corning, Corning, NY) in a total volume of 25 μL of assay media (DMEM and 10% HI FBS). The plated cells were treated with a 4-fold serial dilution of the Antibody Drug Conjugates of interest from either 1 μM or 0.5 μM to either 1 50 μM or 25 μM, respectively 1 μM to 1 μM dispensed by an Echo 550 Acoustic Liquid Handler (Labcyte). Each concentration was tested in at least three replicates for the Mcl-1^−/− MEF huEGFR cell line and for the Mcl-1^−/− MEF vector cell line. The fraction of viable cells following 96 hours of Antibody Drug Conjugate treatment at 37° C. and 5% CO2 was determined using the CellTiter-Glo Luminescent Cell Viability Assay according to the manufacturer's recommendations (Promega Corp., Madison, WI). The plates were read in a Perkin Elmer Envision using a Luminescence protocol with 0.1 see integration time. The replicate values for each dilution point were averaged and the EC50 values for the Antibody Drug Conjugates were generated by fitting the data with GraphPad Prism 5 (GraphPad Software, Inc.) to a sigmoidal curve model using linear regression, Y=((Bottom-Top)/(1+((x/K)^n)))+Top, where Y is the measured response, x is the compound concentration, n is the Hill Slope and K is the EC50 and Bottom and Top are the lower and higher asymptotes respectively. Visual inspection of curves was used to verify curve fit results. Mcl-1^−/− MEFs were obtained from David C. S. Huang of the Walter and Eliza Hall Institute of Medical Research.

Molecule | EC50
B1 | 3.4 nM
B2 | 17 nM
B3 | 24 nM
B4 | 108 nM
B5 | > 500 nM
B6 | 5.8 nM
B7 | 0.1 nM
B8 | 47 nM
B9 | 0.15 nM
B10 | 5.3 nM
B11 | 0.79 nM
B12 | 3.4 nM
B13 | 220 nM
B14 | 35 nM
B15 | 0.4 nM
B16 | 2.6 nM

Test system: NCI-H1650 xenograft
Assay: NCI-H1650 flank xenograft model of NSCLC in mice
Assay type: in vivo, mouse
Settings: Table 10; 10 mg/kg/day QDx1/IP

Molecule | TGImax
B7 | 77%
B10 | 88%
B12 | 84%
B13 | 76%

Test system: NCI-H1650 cells
Assay: NCI-H1650 eGFP spheroid growth (GFP fluorescence and CellTiter-Glo 3D)
Assay type: cell-based
Settings: spheroids, 6 days, CellTiter-Glo 3D luminescence
Source text: as §1
NCI-H1650 cells stably overexpressing eGFP were maintained in RPMI media (Invitrogen cat #22400) containing 10% Fetal Bovine Serum (Invitrogen cat #10082). The cells were removed from plates with Trypsin and plated at 300 cells/well in 25 μL of the same media in Corning 384 well spheroid plates (cat #3830). The plates were centrifuged at 500×g for 5 minutes and placed in an Essen INCUCYTE Zoom Live Cell Analysis System in a 37° C. with 5% CO2 and 95% humidity. The cells were allowed to form spheroids for 3 days before dosing with an equal volume of the antibody drug conjugates at 2× the indicated concentration. The spheroids were incubated for an additional 6 days while monitoring growth and GFP Fluorescence in the Incucyte Zoom prior to addition of 40 μL of Promega CELLTITER-GLO 3D (cat #G968B) and subsequent luminescent reading. IC50s were determined from both the final GFP fluorescence monitored by the Incucyte Zoom (referred to as “H1650 GFP Fluorescence EC50 (μg/mL)” in Table 8) and the chemiluminescent readings from the CellTiter-Glo reagent (referred to as “H1650 CTG-3D EC50 (μg/mL)” in Table 8).

Molecule | H1650 CTG-3D EC50
B1 | 0.07 µg/mL
B2 | 1.23 µg/mL
B3 | 1.68 µg/mL
B4 | 0.02 µg/mL
B5 | 0.4 µg/mL
B6 | 2.03 µg/mL
B7 | 0.08 µg/mL
B8 | 0.49 µg/mL
B9 | 0.05 µg/mL
B10 | 0.15 µg/mL
B11 | 1.07 µg/mL
B12 | 0.11 µg/mL
B13 | 0.12 µg/mL
B14 | 4.36 µg/mL
B15 | 0.01 µg/mL
B16 | 0.03 µg/mL

Same assay, conditions: spheroids, 6 days, final GFP fluorescence (Incucyte Zoom)

Molecule | H1650 GFP Flourescence EC50
B1 | 0.25 µg/mL
B2 | 1.33 µg/mL
B3 | 1.62 µg/mL
B4 | 0.03 µg/mL
B5 | 1.1 µg/mL
B6 | 0.36 µg/mL
B7 | 0.21 µg/mL
B8 | 1.09 µg/mL
B9 | 0.16 µg/mL
B10 | 0.51 µg/mL
B11 | 1.47 µg/mL
B12 | 0.16 µg/mL
B13 | 0.17 µg/mL
B14 | 2.57 µg/mL
B15 | 0.06 µg/mL
B16 | 0.04 µg/mL

Test system: not listed separately
Assay: Size exclusion chromatography, % aggregate fraction of ADC
Assay type: physicochemical
Settings: absorbance at 280 nm
Method: The DAR and percentage aggregation of exemplary ADCs synthesized as described in Example 3, above, were determined by LC-MS and size exclusion chromatography (SEC), respectively.
Size exclusion chromatography (SEC) was performed using a Shodex KW802.5 column in 0.2M potassium phosphate pH 6.2 with 0.25 mM potassium chloride and 15% isopropyl alcohol at a flow rate of 0.75 ml/min. The peak area absorbance at 280 nm was determined for each of the high molecular weight and monomeric eluents by integration of the area under the curve. The % aggregate fraction of the conjugate sample was determined by dividing the peak area absorbance at 280 nm for the high molecular weight eluent by the sum of the peak area absorbances at 280 nM of the high molecular weight and monomeric eluents multiplied by 100%.

Molecule | % Agg (by SEC)
B1 | 4%
B2 | 13.6%
B3 | 15.3%
B4 | 2.5%
B5 | 16.5%
B6 | 3.2%
B7 | 3.3%
B8 | 20%
B9 | 2.6%
B10 | 1.6%
B11 | 1.6%
B12 | 20.4%
B13 | 17.5%
B14 | 4.9%
B15 | 3.6%
B16 | 1.4%

Test system: Mcl-1−/− MEF vector cell line (pLVX empty vector, Vct Ctrl)
Assay: Cell viability (CellTiter-Glo) of mcl-1-/- MEF vector control
Assay type: cell-based, mouse
Settings: 96 hours treatment
Source text: as §1, §2, §3

Molecule | EC50
B1 | 194 nM
B4 | > 500 nM
B5 | > 500 nM
B7 | > 500 nM
B8 | > 1000 nM
B9 | 455 nM
B10 | 368 nM
B11 | > 1000 nM
B12 | > 1000 nM
B13 | > 500 nM
B15 | > 500 nM
B16 | 196 nM

From patent US20250263491A1, “ANTI-EGFR ANTIBODY DRUG CONJUGATES” (priority 2016, published 2025)
